From article PMC12136788 come the findings set out here.

The labels stand for the following.
T1: UNK ZnF1-3 (human, UniProt Q9C0B0 31-174)
T1 sequence: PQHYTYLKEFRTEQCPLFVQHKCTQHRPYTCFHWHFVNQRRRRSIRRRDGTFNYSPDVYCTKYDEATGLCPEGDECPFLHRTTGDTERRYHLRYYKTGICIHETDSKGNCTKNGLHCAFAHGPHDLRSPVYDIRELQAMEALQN

B1: chr1:89688648:89688649:+_ENSMUSG00000026289_ENSMUST00000027512|mus_mus|motif|central (ssRNA)
RNA: GGGAGUUCUACAGUCCGACGAUCGAGCAGGACAGAGAAUGCUUUCCCAGCCCAGCCUUCAUCAUCACCAGCUCCGGGGUAGGCUUCUCUUACCAACACUGCACUGCACGCACAGGCAGUGGCUGGCCUCACCACUCUCUGCUCCAACAGAGGAUUGAGCAUCA
B2: chrX:71549762:71549763:+_ENSMUSG00000019087_ENSMUST00000019231|mus_mus|mus_mus_mus_hu_False|1_98 (ssRNA)
RNA: GGGAGUUCUACAGUCCGACGAUCAAACCCGUGUACUCACUCUUAACAGCACAACAUCACCAGAAAACGAUAACGACAGCCAAGCAGGACAGACAGUUAAGUAGUACUUCCACACUCCCAAACUCAGGGAGCCCUAUAGUUCAUCAACAGAGGAUUGAGCAUCA
B3: 64621807_64623798_901_3pUTR_ENSMUSG00000024588_ENSMUST00000025484|mouse|control|control (ssRNA)
RNA: GGGAGUUCUACAGUCCGACGAUCCCAUGACUUUGUGGACAGUGGCUCCUACCUCUUGGGGAUAGGGGUCCCCUCUGUUGACAACAGACAUCGGCAGGGAGUGGGCAGAAAACAGAAUGACCACCUCGCUUCUCUUCUCCUCUGCAACAGAGGAUUGAGCAUCA
B4: 41407170_41407290_2438_CDS_ENSMUSG00000021365_ENSMUST00000163623|mouse|control|control (ssRNA)
RNA: GGGAGUUCUACAGUCCGACGAUCCUUGAGCUGUUCGCAGAGCUGGUUGCUGGAGUUCCUGACUUUGUUGCGAAUGUCCUGGGCAGCCACCUGCCUUGUCAGAGUGUCUCCAAUGAACACCAGUUUGUGCGCACUAAGAAUGACCAACAGAGGAUUGAGCAUCA
B5: chr12:98991669:98991670:+_ENSG00000075415_ENST00000552981|hu_mus|FALSE|FALSE (ssRNA)
RNA: GGGAGUUCUACAGUCCGACGAUCGAAUCCAUUAAAUAUGCCUUUGUACUUCUGAGGGUCCACCUGCAUGCGGCACUUUACUAAGUCCAGGGGAACAACAGCAGUGUGUGUCAGCCCACAACUUAAGACCCCACCAAAGCCACACAACAGAGGAUUGAGCAUCA
B6: chr5:151042278:151042279:-_ENSG00000113140_ENST00000231061|hu_mus|motif|central (ssRNA)
RNA: GGGAGUUCUACAGUCCGACGAUCAUGACAGCCAUCUAGAUGUGAAAAAAAUCAAACCAAUUCACCAGUCUCACUUCCUCGGCGUUACAACCUUUUCUGUCUUCCUCUUGAGUCUCACUUUCCUGAAACAGCCUCCCAGUGCCUCAACAGAGGAUUGAGCAUCA

Some of the results follow.

The experiment deals with T1, UNK ZnF1-3. Description: nsRBNS (natural sequence RNA bind-n-seq); RBNS binding buffer (assumed for nsRBNS): 25 mM Tris pH 7.5, 150 mM KCl, 3 mM MgCl2, 0.01% Triton X-100, 500 ug/ml BSA, 20 U/ml SUPERase-In, 4 C; UNK is unkempt and MSI1 is Musashi-1; names of the RNAs are library labels; protein concentration not given here; high values mean tight binding.
Molecule B1 showed a binding signal of 1.01 enrichment R.

In turn, B2 displayed a binding signal of 1.76 enrichment R.

The molecule B3 came in with a binding signal of 1.02 enrichment R.

B4 displayed a binding signal of 0.988 enrichment R.

B5: the binding signal worked out at 1.12 enrichment R.

As to B6, the binding signal is 1.28 enrichment R.
